Target: SMases of B. cereus (Bacillus cereus, UniProt P11889)
Details: compound 40 μM
Experimental: Thus, knowing the importance of PLCs in infections by some bacteria, compounds 5 and 6 (40 μM) were tested in face of the hydrolytic activity of SMases of B. cereus and Stahylococcus aureus.

SMILES	reduction of hydrolytic activity of SMase of B. cereus
Cc1[nH]c2ccccc2c1/C=N/NS(=O)(=O)c1ccc(Br)cc1 [Compound 5, 4-bromo-N-[(E)-(2-methyl-1H-indol-3-yl)methyleneamino]benzenosulfonamide]	efficiently reduced
Cc1cc(OS(=O)(=O)c2ccc(Cl)cc2)cc2c1C(=O)C(=Cc1cccnc1)O2 [Compound 6, 4-methyl-3-oxo-2-(3-pyridylmethylene)benzo[3,4-b]furan-6-yl-4-chlorobenzenesulphonate]	efficiently reduced

— US9833444B2 (priority 2013, dated 2017)
